Measured values published in PubChem BioAssay AID2675 (National Center for Advancing Translational Sciences (NCATS), 2010).
About 100 (0.036%) of roughly 280,000 compounds were called active. This list was built around the results that the source calls inconclusive (neither active nor inactive); the mix of calls is not that of the screen. The call rests on the fitted dose curve; in most records, active means well fitted inhibition curve with a large enough effect in the signal ratio, with a control signal flat (not every such curve was filed as active); inconclusive means small, poorly fitted or top-dose-only effect, or effect the other way, or a change in a side signal; inactive means no such curve, though single readings can be large or run the other way; the % refers to the signal ratio. Potencies beside an inconclusive call are fits to weak or partial responses and may not hold up. A note “side channel” means that the fit belongs to a control or component signal, not to the main read-out.

Molecular target: Muscleblind-like protein 1 (Homo sapiens) (UniProt Q9NR56)
Assay: qHTS Assay for Inhibitors of MBNL1-poly(CUG) RNA binding
Details: TR-FRET MBNL1-His/biotin-(CUG)12 binding, 665/545 ratio; activity change, negative = inhibition: at 57.5 µM (top of the series)
Summary of the method: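 His-tagged MBNL1 binding to biotinylated (CUG)12 RNA was measured by TR-FRET using terbium anti-His antibody (0.055 ng/ul final) and streptavidin-XL665 (5 nM final). Compounds were titrated 92 nM to 58 uM; 60 min at room temperature.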
On the % scale 0 is the no-effect control and ±100 the full control effect; potency means the concentration at half of the fitted maximal effect; tags describe the fitted curve by direction and shape or compound fluorescence and quenching.

Chain of UniProt Q9NR56 (Q9NR56 whole entry, looked up): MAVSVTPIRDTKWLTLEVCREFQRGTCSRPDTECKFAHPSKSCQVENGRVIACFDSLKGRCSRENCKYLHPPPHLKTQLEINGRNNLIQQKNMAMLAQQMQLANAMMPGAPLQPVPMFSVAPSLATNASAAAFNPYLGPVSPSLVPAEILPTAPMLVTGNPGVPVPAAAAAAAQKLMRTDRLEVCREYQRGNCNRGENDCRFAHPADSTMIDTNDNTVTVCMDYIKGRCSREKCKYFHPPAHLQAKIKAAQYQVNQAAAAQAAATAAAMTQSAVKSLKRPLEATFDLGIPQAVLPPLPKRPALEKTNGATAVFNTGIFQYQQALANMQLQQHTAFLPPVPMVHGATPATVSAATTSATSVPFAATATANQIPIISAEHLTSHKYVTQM

Compound	Potency	activity change, negative = inhibition
CCOC(=O)C1CCCN(C2=NC(=O)/C(=C/c3ccc(OC)cc3OC)S2)C1 (configuration not stated)	inconclusive: 28.2 µM [quencher, single point]	–
Nc1cc(S(=O)(=O)O)cc([N+](=O)[O-])c1O	inconclusive: 22.4 µM [quencher, side channel, partial curve]	–
COc1ccccc1NC(=O)c1cc(Cl)nnc1Cl	inconclusive: 15.8 µM [quencher, side channel, partial curve]	–
COc1ccc(CCNc2ccc(C(CC(N)=O)NC(=O)c3ccc(Br)cc3)cc2[N+](=O)[O-])cc1 (configuration not stated)	–	inactive: 1.57%
O=C(NCc1cccnc1)c1ccccc1[N+](=O)[O-]	inconclusive: 22.4 µM [quencher, single point]	–
Cc1c(CCC(=O)N2CCC[C@H]2C(=O)O)c(=O)oc2cc3oc4c(c3cc12)CCCC4	–	inactive: -6.94%
C=CCn1c(O)c(N=NC(=O)C(O)c2ccccc2)c2ccccc21 (configuration not stated)	inconclusive: 15.8 µM [quencher, side channel, partial curve]	–
CN1CCc2c(sc(NC(=O)c3ccc(S(=O)(=O)N4CCOCC4)cc3)c2C(N)=O)C1	inconclusive: 8.91 µM [quencher, side channel, partial curve]	–
[N-]=C=C1C(=O)NC(=O)C([n+]2ccc(-c3ccncc3)cc2)C1c1ccccc1C(F)(F)F (configuration not stated)	inconclusive: 14.1 µM [quencher, side channel, partial curve]	–
O=C(Nc1ccccc1)c1sc2cc(C(F)(F)F)cnc2c1-c1cccs1	inconclusive: 39.8 µM [fluorescent, side channel, single point]	–
C=CCNC(=O)NC(=O)COC(=O)/C(C#N)=C/c1ccc(OC)cc1	inconclusive: 31.6 µM [quencher, side channel, single point]	–
CC1=NN(C(=O)c2ccc(Cn3cc(Br)c([N+](=O)[O-])n3)o2)C(O)(C(F)(F)F)C1 (configuration not stated)	–	inactive: 8.81% [at 11.5 µM]
O=C(CSc1ccc(Cl)cc1)Nc1ccccc1N1CCN(C(=O)c2ccc(Cl)cc2)CC1	inconclusive: 25.1 µM [fluorescent, side channel, partial curve]	–
COc1ccc(NC(=O)CSc2ccccc2)c(OC)c1	inconclusive: 100 µM [inhibitor, single point]	–
Cc1ccc(N=C2C(=O)Nc3ccccc32)cc1C	inconclusive: 7.94 µM [quencher, side channel, partial curve]	–
O=C(O)c1ccc(N/N=C/c2ccc(F)c(F)c2)cc1	inconclusive: 0.112 µM [quencher, side channel, full curve, poor fit]	–
Cc1sc(-c2ccccn2)nc1OC(=O)c1ccc(Cl)cc1	inconclusive: 0.141 µM [quencher, side channel, full curve, poor fit]	–
CC(C)CN1C(=O)c2ccc(NC(=O)c3ccco3)cc2C1=O	inconclusive: 15.8 µM [quencher, side channel, partial curve]	–
O=C(N/N=C(\Cc1ncc[nH]1)c1ccccc1)c1ccncc1	–	inactive: 9.31%

Compound	Potency	activity change, negative = inhibition
O=C(COc1ccc([N+](=O)[O-])cc1)NCc1cccnc1	inconclusive: 14.1 µM [quencher, side channel, partial curve]	–
CN(C)c1ccc(C(=O)c2ccc(N(C)C)c(N)c2)cc1N	inconclusive: 22.4 µM [quencher, side channel, single point]	–
CCOc1ccc(N2CC(C(=O)NCCN3C(=O)S/C(=C\c4ccc(OC)cc4)C3=O)CC2=O)cc1 (configuration not stated)	inconclusive: 3.55 µM [quencher, side channel, full curve]	–
Cc1cc2nc3c(=O)[nH]c(=S)[nH]c3nc2cc1NC(=O)C(F)(F)F	inconclusive: 7.94 µM [quencher, side channel, partial curve]	–
CCCC(=O)Nc1nn(C)c2nc3cc(C)ccc3cc12	inconclusive: 17.8 µM [quencher, side channel, partial curve]	–
Oc1cccc(Nc2c3ccccc3nc3ccccc23)c1	inconclusive: 15.8 µM [quencher, side channel, partial curve]	–
Cc1c(C(=O)O)oc2c3c(ccc12)OCCO3	–	inactive: 8.37%
Cc1ccccc1-n1c(SCC(=O)Nc2c(C)cccc2C)nc(O)cc1=O	–	inactive: -4.19%
CN1C(=O)C(CC(=O)N2CCN(C(c3ccccc3)c3ccccc3)CC2)N(C)C1=O (configuration not stated)	inconclusive: 25.1 µM [inhibitor, single point]	–
O=C(Cc1cccc2ccccc12)N/N=C/c1ccc(OC(=O)/C=C/c2ccco2)cc1	–	inactive: -1.6%
CCn1nc(C)c(/C=C2\CCCC3=C2OC(N)=C(C#N)C3c2c(C)nn(CC)c2C)c1C (configuration not stated)	inconclusive: 22.4 µM [quencher, side channel, single point]	–
CN(C)CCNc1ccc(-c2n[nH]c(=O)c3ccccc23)cc1[N+](=O)[O-]	inconclusive: 11.2 µM [quencher, side channel, partial curve]	–
CCCNC(=O)c1ccc2c(=O)c(O)c(-c3ccc(C)cc3)[nH]c2c1	inconclusive: 6.31 µM [quencher, side channel, full curve]	–
COc1ccc(C(C(=O)NC2CCCC2)N(Cc2cccnc2)C(=O)c2snc(C(N)=O)c2N)cc1 (configuration not stated)	inconclusive: 31.6 µM [quencher, side channel, single point]	–
Cc1nnc2n(-c3ccccc3)c(=O)c3c4c(sc3n12)COC(C(C)C)C4 (configuration not stated)	–	inactive: 4.21%
Cc1cccc(NC(=O)C2CCCN(S(=O)(=O)c3cccc4nsnc34)C2)n1 (configuration not stated)	inconclusive: 14.1 µM [quencher, side channel, partial curve]	–
COc1ccc(C(=O)N/C(=C\c2cccc([N+](=O)[O-])c2)C(=O)Nc2cccc(C(=O)O)c2)cc1	inconclusive: 20 µM [quencher, side channel, partial curve]	–
O=C(N/N=C/c1c(O)ccc2ccccc12)c1ccc(CO)nc1	inconclusive: 12.6 µM [quencher, side channel, partial curve]	–
